# This is one part of the list.
# B1: RBMC2 (Vibrio cholerae) (protein)
# chain: KISVRSGFAIDAIGASASTLVGGTGGNLNAAVNVKDIKAIDLTWGKYYWGGYHLLALDFRMSNGSVISMGSKNYAYSKQTERFTVPAGSRIKGIKAWTAGWLLDGVQFELA
# Assays:
# Test in all cases: glycan array binding signal (z-score within array); higher = stronger binding
# Settings in all cases: glycan notation: IUPAC condensed, linker removed
# Gal(a1-3)Gal(b1-3)GlcNAc = molecular target: Gal(a1-3)Gal(b1-3)GlcNAc
# Method in brief: (§1)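 Negative Z-scores can be read as non-binding. The Z-score is calculated within each array and then averaged across arrays of one protein sequence at different concentrations or buffers and across linkers. Arrays, 3228 in all, were curated from the Consortium for Functional Glycomics database and kept only where the protein sequence was available.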
# [1] = molecular target: Gal(a1-3)Gal(b1-3)GlcNAc(b1-2)Man
# Method in brief: as §1
# [2] = molecular target: Gal(a1-3)Gal(b1-3)GlcNAc(b1-2)Man(a1-3)[Gal(a1-3)Gal(b1-3)GlcNAc(b1-2)Man(a1-6)]Man(b1-4)GlcNAc(b1-4)GlcNAc
# Method in brief: as §1
# [3] = molecular target: Gal(a1-3)Gal(b1-3)GlcNAc(b1-3)GalNAc
# Method in brief: as §1
# [4] = molecular target: Gal(a1-3)Gal(b1-3)GlcNAc(b1-6)GalNAc
# Method in brief: as §1
# [5] = molecular target: Gal(a1-3)Gal(b1-3)[Fuc(a1-4)]GlcNAc(b1-2)Man(a1-3)[Gal(a1-3)Gal(b1-3)[Fuc(a1-4)]GlcNAc(b1-2)Man(a1-6)]Man(b1-4)GlcNAc(b1-4)GlcNAc
# Method in brief: as §1
# Gal(a1-3)Gal(b1-4)Glc = molecular target: Gal(a1-3)Gal(b1-4)Glc
# Method in brief: as §1
# Gal(a1-3)Gal(b1-4)GlcNAc = molecular target: Gal(a1-3)Gal(b1-4)GlcNAc
# Method in brief: as §1
# [6] = molecular target: Gal(a1-3)Gal(b1-4)GlcNAc(b1-2)Man
# Method in brief: as §1
# [7] = molecular target: Gal(a1-3)Gal(b1-4)GlcNAc(b1-2)Man(a1-3)[Gal(a1-3)Gal(b1-4)GlcNAc(b1-2)Man(a1-6)]Man(b1-4)GlcNAc(b1-4)GlcNAc
# Method in brief: as §1
# [8] = molecular target: Gal(a1-3)Gal(b1-4)GlcNAc(b1-3)GalNAc
# Method in brief: as §1
# [9] = molecular target: Gal(a1-3)Gal(b1-4)GlcNAc(b1-6)GalNAc
# Method in brief: as §1
# [10] = molecular target: Gal(a1-3)Gal(b1-4)[Fuc(a1-3)]GlcNAc
# Method in brief: as §1
# [11] = molecular target: Gal(a1-3)Gal(b1-4)[Fuc(a1-3)]GlcNAc(b1-2)Man(a1-3)[Gal(a1-3)Gal(b1-4)[Fuc(a1-3)]GlcNAc(b1-2)Man(a1-6)]Man(b1-4)GlcNAc(b1-4)GlcNAc
# Method in brief: as §1
# Gal(a1-3)GalNAc = molecular target: Gal(a1-3)GalNAc
# Method in brief: as §1
# [12] = molecular target: Gal(a1-3)[Gal(a1-4)]Gal(b1-4)GlcNAc
# Method in brief: as §1
# [13] = molecular target: Gal(a1-4)Gal(b1-3)GlcNAc(b1-2)Man(a1-3)[Gal(a1-4)Gal(b1-3)GlcNAc(b1-2)Man(a1-6)]Man(b1-4)GlcNAc(b1-4)GlcNAc
# Method in brief: as §1
# Gal(a1-4)Gal(b1-4)Glc = molecular target: Gal(a1-4)Gal(b1-4)Glc
# Method in brief: as §1
# Gal(a1-4)Gal(b1-4)GlcNAc = molecular target: Gal(a1-4)Gal(b1-4)GlcNAc
# Method in brief: as §1
# [14] = molecular target: Gal(a1-4)Gal(b1-4)GlcNAc(b1-2)Man(a1-3)[Gal(a1-4)Gal(b1-4)GlcNAc(b1-2)Man(a1-6)]Man(b1-4)GlcNAc(b1-4)GlcNAc
# Method in brief: as §1
# [15] = molecular target: Gal(a1-4)Gal(b1-4)GlcNAc(b1-3)Gal(b1-4)Glc
# Method in brief: as §1
# Gal(a1-4)GlcNAc = molecular target: Gal(a1-4)GlcNAc
# Method in brief: as §1
# Gal(a1-6)Glc = molecular target: Gal(a1-6)Glc
# Method in brief: as §1
# Gal(b1-2)Gal = molecular target: Gal(b1-2)Gal
# Method in brief: as §1
# Gal(b1-3)Gal = molecular target: Gal(b1-3)Gal
# Method in brief: as §1
# Gal(b1-3)Gal(b1-4)GlcNAc = molecular target: Gal(b1-3)Gal(b1-4)GlcNAc
# Method in brief: as §1
# Gal(b1-3)GalNAc = molecular target: Gal(b1-3)GalNAc
# Method in brief: as §1
# [16] = molecular target: Gal(b1-3)GalNAc(a1-3)[Fuc(a1-2)]Gal(b1-4)Glc
# Method in brief: as §1
# [17] = molecular target: Gal(b1-3)GalNAc(a1-3)[Fuc(a1-2)]Gal(b1-4)GlcNAc
# Method in brief: as §1
# Gal(b1-3)GalNAc(b1-3)Gal = molecular target: Gal(b1-3)GalNAc(b1-3)Gal
# Method in brief: as §1
# [18] = molecular target: Gal(b1-3)GalNAc(b1-3)Gal(a1-4)Gal(b1-4)Glc
# Method in brief: as §1
# [19] = molecular target: Gal(b1-3)GalNAc(b1-4)Gal(b1-4)Glc
# Method in brief: as §1
# [20] = molecular target: Gal(b1-3)GalNAc(b1-4)[Neu5Ac(a2-3)]Gal(b1-4)Glc
# Method in brief: as §1
# Gal(b1-3)GlcNAc = molecular target: Gal(b1-3)GlcNAc
# Method in brief: as §1
# [21] = molecular target: Gal(b1-3)GlcNAc(a1-3)Gal(b1-4)GlcNAc
# Method in brief: as §1
# [22] = molecular target: Gal(b1-3)GlcNAc(a1-6)Gal(b1-4)GlcNAc
# Method in brief: as §1
# Gal(b1-3)GlcNAc(b1-2)Man = molecular target: Gal(b1-3)GlcNAc(b1-2)Man
# Method in brief: as §1
# [23] = molecular target: Gal(b1-3)GlcNAc(b1-2)Man(a1-3)[Gal(b1-3)GlcNAc(b1-2)Man(a1-6)]Man(b1-4)GlcNAc(b1-4)GlcNAc
# Method in brief: as §1
binder,measurement,setting,value
B1,glycan array binding signal (z-score),Gal(a1-3)Gal(b1-3)GlcNAc,-0.432
same,glycan array binding signal (z-score),[1],-0.064
same,glycan array binding signal (z-score),[2],0.427
same,glycan array binding signal (z-score),[3],-0.349
same,glycan array binding signal (z-score),[4],-0.252
same,glycan array binding signal (z-score),[5],0.108
same,glycan array binding signal (z-score),Gal(a1-3)Gal(b1-4)Glc,-0.287
same,glycan array binding signal (z-score),Gal(a1-3)Gal(b1-4)GlcNAc,-0.401
same,glycan array binding signal (z-score),[6],-0.29
same,glycan array binding signal (z-score),[7],3.79
same,glycan array binding signal (z-score),[8],-0.194
same,glycan array binding signal (z-score),[9],-0.344
same,glycan array binding signal (z-score),[10],-0.368
same,glycan array binding signal (z-score),[11],0.834
same,glycan array binding signal (z-score),Gal(a1-3)GalNAc,-0.276
same,glycan array binding signal (z-score),[12],-0.319
same,glycan array binding signal (z-score),[13],2.49
same,glycan array binding signal (z-score),Gal(a1-4)Gal(b1-4)Glc,-0.077
same,glycan array binding signal (z-score),Gal(a1-4)Gal(b1-4)GlcNAc,-0.372
same,glycan array binding signal (z-score),[14],4.07
same,glycan array binding signal (z-score),[15],-0.304
same,glycan array binding signal (z-score),Gal(a1-4)GlcNAc,-0.365
same,glycan array binding signal (z-score),Gal(a1-6)Glc,-0.256
same,glycan array binding signal (z-score),Gal(b1-2)Gal,-0.249
same,glycan array binding signal (z-score),Gal(b1-3)Gal,-0.438
same,glycan array binding signal (z-score),Gal(b1-3)Gal(b1-4)GlcNAc,-0.382
same,glycan array binding signal (z-score),Gal(b1-3)GalNAc,-0.233
same,glycan array binding signal (z-score),[16],-0.069
same,glycan array binding signal (z-score),[17],-0.258
same,glycan array binding signal (z-score),Gal(b1-3)GalNAc(b1-3)Gal,-0.404
same,glycan array binding signal (z-score),[18],-0.339
same,glycan array binding signal (z-score),[19],-0.191
same,glycan array binding signal (z-score),[20],-0.407
same,glycan array binding signal (z-score),Gal(b1-3)GlcNAc,-0.297
same,glycan array binding signal (z-score),[21],-0.3
same,glycan array binding signal (z-score),[22],-0.422
same,glycan array binding signal (z-score),Gal(b1-3)GlcNAc(b1-2)Man,-0.386
same,glycan array binding signal (z-score),[23],3.3

# — the supplement of paper PMC8728848
